# In PubChem BioAssay AID1345082 (National Center for Advancing Translational Sciences (NCATS), 2018):
# In all, about 94,000 compounds went through this assay and about 4,000 (4.3%) were called active. This list was built around the results that the source calls inconclusive (neither active nor inactive); the mix of calls is not that of the screen. Calls follow the shape of the dose curve; as a rule, active = well fitted inhibition curve with a large enough effect; inconclusive = small, poorly fitted or top-dose-only effect; inactive = no such curve, though single readings can be large or run the other way. Where the call is inconclusive, the potency comes from a doubtful curve fit.
# Test: Cytotoxic Profiling in NIH 3T3 Cell Line of Diverse Libraries Using Quantitative High-Throughput Screening; also: nearly all actives have a fitted effect of over 55% in size
# Conditions: NIH 3T3 viability, CellTiter-Glo ATP luminescence, 48-72 h; activity change, negative = cytotoxicity: at 96.7 µM (top of the series); series mostly up to 96.7 µM
# How it was run: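 Viability of NIH 3T3 cells after 48 or 72 hr compound treatment at 37 °C was assessed by CellTiter-Glo, with luminescence imaged following a 10 min room-temperature step.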
# % is scaled to controls: 0 for no effect and ±100 for the full control effect; potency is read from the fitted curve at half-maximal effect; tags tell the direction and shape of the fitted curve.
SMILES,Potency,outcome,"activity change, negative = cytotoxicity"
O=C(NC1CCCN(c2ccnc3ccnn23)C1)C1CCCC1 (stereo not drawn),"inconclusive: 89.1 µM [inhibitor, partial curve]",,
COCCCNC(=O)c1cc(C2CC2)nc2c1c(C1CCCN1)nn2-c1ccccc1 (stereo not drawn),"inconclusive: 50.1 µM [inhibitor, partial curve, poor fit]",,
Cc1ccccc1-c1nccc2c(=O)cc(-c3ccncc3)oc12,"inconclusive: 15.8 µM [inhibitor, full curve, poor fit]",,
COc1ccc(-c2cc(C[C@H]3CNCC[C@H]3CC(=O)NCc3ccccc3OC)no2)cc1,active: 70.8 µM,,
Cc1nc2ccccn2c1C(=O)NC(C)c1cnn(-c2ccccn2)c1C (stereo not drawn),"inconclusive: 17.8 µM [inhibitor, full curve, poor fit]",,
Clc1cccc(CN2CC(CNc3cccnc3)C3(C2)CN(c2ccccc2)C3)c1 (stereo not drawn),"inconclusive: 35.5 µM [inhibitor, full curve]",,
Cc1ccc(Nc2ccnc(N3CCCC(C(=O)NCC(F)F)C3)n2)cc1 (stereo not drawn),active: 39.8 µM,,
COc1ccc(-c2cc(N3CCCC(NC(=O)Cc4ccc(OC)c(OC)c4)C3)n[nH]2)cc1 (stereo not drawn),"inconclusive: 44.7 µM [inhibitor, partial curve, poor fit]",,
CSCc1noc(CNC(=O)c2ccc(-c3ccccc3Cl)o2)n1,"inconclusive: 79.4 µM [inhibitor, partial curve, poor fit]",,
COCc1nncn1C1CCN(C(=O)c2ccccc2F)CC1,,inactive,
Clc1ccc2oc([C@H]3CCN(Cc4ccccn4)C3)nc2c1,"inconclusive: 89.1 µM [inhibitor, partial curve, poor fit]",,
O=C(NC1CCOCC1)c1ccc2c(c1)C1(CCN(CC3CC3)C1)CN2Cc1ccccc1 (stereo not drawn),"inconclusive: 56.2 µM [inhibitor, partial curve, poor fit]",,
Cc1cc(F)cc(CN2CCc3nc(C(=O)NCc4ccncc4)oc3CC2)c1,"inconclusive: 39.8 µM [inhibitor, full curve]",,
COc1ccccc1C(=O)NC1CCCc2c1[nH]c1ccccc21 (stereo not drawn),,,inactive: -26.8%
Cc1ccc2nc(C3CCCN(Cc4cccs4)C3)[nH]c(=O)c2c1 (stereo not drawn),,,inactive: -21.8%
CCCS(=O)(=O)N1CCCC(Cn2c(C3CC3)nc3cccnc32)C1 (stereo not drawn),"inconclusive: 56.2 µM [inhibitor, partial curve, poor fit]",,
COc1ccc(-c2c(C(=O)NCc3ccc(F)c(F)c3)nc3sccn23)cc1,"inconclusive: 50.1 µM [inhibitor, partial curve, poor fit]",,
COc1ccc2[nH]c3c(c2c1)CCNC31CCN(C(=O)c2ccc(C)s2)CC1,"inconclusive: 44.7 µM [inhibitor, partial curve, poor fit]",,
